# The full ranking holds about 13,000 compounds; the median of “IFI” is about 4, and the highest 2% start at about 17. The list shows a part of the results.
# Assay: GSK_TCMDC: Inhibition Frequency Index (IFI). The number of non-kinase HTS assays where a compound showed > 50 % inhibition, expressed as a percentage of the number of such assays in which the compound was tested (-0 is zero)
# Type: functional
row,Compound,IFI
1,NC1CCCN(Cc2cccc(-c3ccc(-c4nc5cc(F)ccc5[nH]4)cc3)c2)C1 (stereo not drawn),4.23%
2,COc1cc(O)c2c(=O)c(OC)c(-c3cccc(Cl)c3OCC(=O)O)oc2c1OC,1.4%
3,c1ccc(CNc2nc(NCCc3c[nH]cn3)nc(N3CCCC4CCCCC43)n2)cc1 (stereo not drawn),0.75%
4,O=C(NC1CCCCC1)N(Cc1cccc(-c2ccc(CNC3CCCC3)cc2)c1)C1CCN(Cc2ccccc2)CC1,8.96%
5,Cc1cccc2nc(-c3cccc(-c4cccc(NC(=O)Nc5ccsc5)c4)c3)[nH]c12,2.02%
6,CN1CCN(c2ccnc3ccc(NC(=O)Cc4ccc(Br)c5ccccc45)cc23)CC1,1.44%
7,CN(C)C(=O)CCCn1c(CNCCCNc2cc(=O)c3ccccc3[nH]2)cc2c(Cl)cc(Cl)cc21,3.62%
8,CCN(CC)CCN1C(=O)c2oc3ccc(Cl)cc3c(=O)c2C1c1ccc(SC)cc1 (stereo not drawn),2.38%
9,O=C(C=Cc1ccc(Cl)c(Cl)c1)NCCCCCN1CCCC(CCCNC(=O)C2CC2c2ccccc2)C1 (stereo not drawn),3.85%
10,Cn1c(Cc2ccccc2)nnc1Sc1ccc(C#N)c([N+](=O)[O-])c1,0.7%
11,CON=Cc1sc(CNCCCN=c2cc(O)c3ccccc3[nH]2)c(C)c1Br,6.52%
12,Cc1cccc(C=NN=c2cc(C)[nH]c3ccc(F)cc23)n1,2.22%
13,Cc1cc(-c2nc3ccc(C(=O)NCc4ccccc4)cc3n2C2CCN(C(=O)c3ccc(-c4ccccc4)cc3)CC2)ccn1,1.4%
14,COc1ccc(-c2ccc(NC(=O)c3ccc(Cl)cc3)cc2)cc1CN1CCCN(C)CC1,5.94%
15,Cc1ccccc1C1CCN(c2ncc(C(=O)Nc3ccccc3)cc2Cl)CC1,4.08%
16,CN(C)c1nc(NCc2ccccc2)nc(N/N=C/c2cc([N+](=O)[O-])ccc2O)n1,6.16%
17,COc1ccc2nccc(N3CCN(CCNCc4ccc5c(n4)NC(=O)CO5)CC3)c2c1,3.73%
18,N#Cc1cccc(NC(=O)Nc2ccc(-c3csc(-c4nc5ccccc5[nH]4)c3)cc2)c1,6.93%
19,Cn1nc(C(F)(F)F)c(-c2ccc(Br)cc2)c1NC(=O)Cc1ccccc1F,0.67%
20,CC(=O)Nc1nc(N)c2c(ccc3c2ccn3CC(C)C)n1,2.13%
21,CCCc1c(Cl)cc(CNCCCNc2nc3ccncc3[nH]2)cc1Cl,2.13%
22,CCc1ccc(C2CCN(CCCCNC(=O)c3ccc(-c4ccc(C#N)cc4)cc3)CC2)c(OCCO)c1,4.55%

row,Compound,IFI
1,CN(C)CCNCc1cccc(-c2cccc(-c3nc4ccccc4[nH]3)c2)c1,4.9%
2,CCNS(=O)(=O)c1ccc(Oc2ccc([N+](=O)[O-])cc2)cc1,1.46%
3,CC(CN(C)C)Oc1ccc2nc(-c3cccc(OCc4ccccc4)c3)[nH]c2c1C#N (stereo not drawn),9.09%
4,CS(=O)(=O)Cc1ccc(Nc2nccc(N3CCCc4cc(NC(=O)Nc5cccc(C(F)(F)F)c5)ccc43)n2)cc1,12.3%
5,CC(=O)c1c[nH]c(C(=O)Nc2ccc(-c3cn4ccccc4n3)cc2)c1,-0%
6,CN1CCc2cc(Br)c(O)cc2C1Cc1ccccc1Cl (stereo not drawn),4.86%
7,N#Cc1ccc(CN2CCC(Oc3ccc(NC(=O)c4cccs4)cc3Cl)C2)cc1 (stereo not drawn),10.4%
8,Cc1cccc2nc(-c3ccc(-c4ccc(CN5CCN(CCC#N)CC5)cc4)cc3)[nH]c12,9.59%
9,CSCCC(C(=O)O)N1C(=O)c2ccccc2C1=O (stereo not drawn),-0%
10,CN1CCN(c2ccnc3ccc(NC(=O)Nc4ccccc4Br)cc23)CC1,0.75%
11,CCN(C)c1cc(C(=O)N[C@@H](Cc2ccccc2)[C@H](O)CNC(C)(C)c2cccc(OC)c2)cc(N2CCCC2=O)c1,3.55%
12,O=C(/C=C/c1ccc(Cl)c(Cl)c1)NCCCCCN1CCC(CCNC(=O)/C=C/c2cc(C(F)(F)F)ccc2F)CC1,8.97%
13,Cn1nccc1C(=O)NCCNCc1ccc(-c2ccc(-c3nc4ccccc4[nH]3)s2)cc1,3.92%
14,Nc1ccc2nc(C=Cc3ccc(Cl)cc3)[nH]c2c1,2.11%
15,Cc1cc(N2CCCC2)nc(Nc2ccc(NC(=O)C(C)Oc3ccccc3)cc2)n1 (stereo not drawn),15.4%
16,COc1cccc(C(C)(C)NC[C@@H](O)[C@H](Cc2ccccc2)NC(=O)c2cc(C3CCCC3)cc(N3CCCCS3(=O)=O)c2F)c1,12.9%
17,CS(=O)(=O)c1ccc(CCNCc2ccc(-c3ccc(CN(C(=O)c4ccc(Cl)nc4)C4CCN(Cc5ccccc5)CC4)cc3)nc2)cc1,6.25%
18,N=C(N)NN=Cc1ccc2ccc3ccccc3c2c1,7.04%
19,COc1ccc(NC(=O)Nc2ccc(-c3ccc(-c4nc5ccccc5[nH]4)cc3)cc2)cc1,0%
20,CC(C)(C)c1ccc2[nH]c(-c3ccc(C(=O)NCCCc4ccccc4)cc3)nc2c1,3.7%
21,Cc1noc(C)c1-c1cccc(CNCc2ccc(-c3ccc(-c4nc5cc(F)ccc5[nH]4)s3)cc2)c1,4.85%
22,C[C@H](Cc1ccc(OCCCCCCOc2ccc(C[C@@H](C)N[C@H](C)c3ccccc3)cc2)cc1)NC[C@H](O)c1cccc(Cl)c1,19.6%

row,Compound,IFI
1,O=c1cc(NCCCNCc2[nH]c3cc(Cl)ccc3c2Cl)[nH]c2ccccc12,5.97%
2,C=C1C[C@@H](n2cnc3c(NC(=O)c4ccccc4)ncnc32)[C@@H](F)[C@@H]1OC(c1ccccc1)(c1ccccc1)c1ccccc1,-0%
3,COc1cc2c(cc1OC)CC(NCc1ccc(-c3ccc4nc[nH]c4c3)cc1)C2,-0%
4,CC1(C)CNCc2cc(NC(=O)/C=C/c3ccc(Cl)cc3)ccc21,2.27%
5,CCc1cn(CCS(C)(=O)=O)c2ccc(C(=O)N[C@@H](Cc3ccccc3)[C@H](O)CNC(C)(C)CCCC(C)C)cc12,4.35%
6,CC(Oc1ccc(Cl)cc1)C(=O)Nc1cc(C(F)(F)F)ccc1N1CCOCC1 (stereo not drawn),7.23%
7,Cc1nc(-c2ccc(C#N)cc2)sc1C(=O)NCCCCN1CCC(c2ccc3c(c2OCCO)CCCC3)CC1,5.5%
8,CN(C)CCC1CCN(CCS(=O)(=O)c2cccc(Nc3ncc(-c4cccc(F)c4)cn3)c2)CC1,10.7%
9,CCNc1cc(C(=O)N[C@@H](Cc2cccc(F)c2)[C@H](O)CNC(C)CCCC(C)C)cc(N2CCCCS2(=O)=O)c1 (stereo partly drawn),2.94%
10,CCOC(=O)c1nc(-c2cccc(F)c2)[nH]c1N,2.92%
11,CCC(C)NC(=O)Cn1c2ncccc2c(=O)n1-c1ccc(C)cc1 (stereo not drawn),2.33%
12,N#Cc1cccc(NC(=O)Nc2ccc(CC(=O)N3CCc4cc(Cl)c(N5CCN(C/C=C/c6ccccc6)CC5)cc43)cc2)c1,0.72%
13,Nc1c2c(nc3ccc(C(=O)Nc4cc(I)c(O)c(I)c4)cc13)CCCC2,9.02%
14,N#Cc1ccc(CCNc2nccc(-c3cccc(CN4CCNCC4)c3)n2)cc1,8.33%
15,CC(=O)Nc1ccc(C(=O)Nc2cccc(-c3ccc(-c4nc5ccccc5[nH]4)cc3)c2)cn1,7.89%
16,Cc1cc2nc(-c3cccc(C(=O)NC4CCN(Cc5ccccc5)CC4)c3)[nH]c2cc1C,3.01%
17,O=c1cc(NCCC(CNCCc2ccccc2)NCc2cc(Br)cc(Br)c2)[nH]c2ccccc12 (stereo not drawn),7.69%
18,O=C(/C=C/c1ccc(Cl)c(Cl)c1)NCCCCCCN1CCCN(C(=O)Nc2ccc(C(F)(F)F)cc2)CC1,12.3%
19,CCN(CC)CCCCCNc1c2ccc(Cl)cc2nc2ccc(OC)cc12,8.03%
20,CCCCCCNC(=O)C1Cc2c([nH]c3ccc(Br)cc23)C2(CCN(CCc3ccccc3)CC2)N1 (stereo not drawn),8.45%
21,O=C(Nc1ccc(Cl)cn1)c1sc2ccccc2c1O,2.44%
22,Cc1nc(N)nc(N)c1OCCCOc1cccc(Cl)c1Cl,5.22%

row,Compound,IFI
1,Cc1nc(NCc2ccccc2)cc(Nc2cc(NCc3ccccc3)nc(C)n2)n1,3.91%
2,CN(C)CCCn1c(C(=O)OC(c2ccccc2)c2ccccc2)cc2cc(OCc3ccccc3)ccc21,7.89%
3,Cc1cc(-c2ccc(NC(=O)N3CCc4cc(Br)c(N5CCN(C)CC5)cc43)cc2)ccc1C#N,12.7%
4,N#Cc1cccc(NC(=O)Nc2ccc(-c3cccc(-c4nc5cc(F)ccc5[nH]4)c3)cc2)c1,4.04%
5,Cc1cc(C(=O)CN2C(=O)NC(C)(c3cccc4ccccc34)C2=O)c(C)n1Cc1ccco1 (stereo not drawn),2.82%
6,Cc1ccc(CNC(=O)c2cc3c(=O)n4cccc(C)c4nc3n(CCN3CCOCC3)c2=N)cc1,-0%
7,CCNc1cc(C(=O)N[C@@H](Cc2ccccc2)[C@H](O)CNCc2cc(OC)cc(OC)c2)cc(N2CCCC2=O)c1,4.29%
8,Cc1sc(CNCCCNc2cc(=O)c3ccccc3[nH]2)c(C(F)(F)F)c1C,5%
9,CN1CC[C@@H](Oc2cc(NC(=O)Nc3ccc(Cl)c(C(F)(F)F)c3)ccc2Cl)C1,7.63%
10,COC(=O)c1ccc2nc(-c3ccc(/C=C/C(=O)NCc4ccc(Cl)c(Cl)c4)cc3)[nH]c2c1,3.03%
11,NC1CCN(CCc2ccc(NS(=O)(=O)c3cccc4ccccc34)cc2)CC1,8.33%
12,Cc1cccc(CN2CCC(CNC(=O)c3cc4c(-c5ccccc5F)nn(C)c4s3)CC2)c1,6.52%
13,CCN(CC)CCOc1ccc(C(O)(C#CC(O)(c2ccccc2)c2ccc(OCCN(CC)CC)cc2)c2ccccc2)cc1 (stereo not drawn),6.52%
14,Cc1ccc(Nc2nc(N)c3ccccc3n2)cc1,4.93%
15,CNC(=O)c1nc(-c2ccccc2)[nH]c1NC(C)=O,0%
16,CCOC(=O)c1ccc(NC(=O)NNC(=O)c2ccc(CCN3CCC(c4nc(COCC(F)(F)F)c(-c5ccc(F)cc5)o4)CC3)cc2)cc1,-0%
17,O=C(Nc1cccc(C(F)(F)F)c1)Nc1ccc(Cl)c(Cl)c1,16.1%
18,COc1ccc(CN2CCC(NCc3cccc([N+](=O)[O-])c3)CC2)cc1,0.72%
19,NC(=O)c1ccccc1OCC(=O)Nc1cccc(-c2ccc(-c3nc4ccccc4[nH]3)cc2)c1,13%
20,O=C(Nc1cccc(-c2ccc(CN3CCNCC3)cc2)c1)c1cccc(Cl)c1,6.8%
21,CCCN1CCC2(CC1)NC(C(=O)NCCC(C)C)Cc1c2[nH]c2cc(Cl)ccc12 (stereo not drawn),2.19%
22,Cc1c(C)n(C2CCCCC2)c2ncnc(OC3CCN(CC(=O)NC4CC4)CC3)c12,4.44%

# From ChEMBL document CHEMBL1157539, “Thousands of chemical starting points for antimalarial lead identification” (Nature, 2010)
